Test results as given in PMC5712524, “Mechanism of early light signaling by the carboxy-terminal output module of Arabidopsis phytochrome B” (Nature Communications, 2017).
Results are given in words; binding and its absence hold for the method and conditions named. For some assays here: In cells and extracts the contact can be indirect. Some results given as binding are weak or reduced against the parent protein; the word gives no strength. For some assays here: Sequences can lack the tags named with a protein.

Assays:
[1] = biological target: HKRD-CA2 (994-1172 a.a.) (Arabidopsis) (UniProt P14713); test: two-hybrid; GAL4 system, bait pGBKT7 in Y2HGold mated with prey pGADT7AD in Y187; HIS3 reporter, growth on SD/-Trp/-Leu/-His without AbA (less stringent), 30 °C
[2] = biological target: HKRD-CA3 (1041-1172 a.a.) (Arabidopsis) (UniProt P14713); test: as above
[3] = biological target: HKRD-D (863-1060 a.a.) (Arabidopsis) (UniProt P14713); test: two-hybrid; GAL4 system, bait pGBKT7 in Y2HGold mated with prey pGADT7AD in Y187; growth on SD/-Trp/-Leu with 125 ng/ml Aureobasidin A (high stringency), 30 °C
[4] = biological target: PHYB18 C-terminal module (625-1172 a.a., D1040V), N-terminal HA- or Myc-tagged (Arabidopsis) (UniProt P14713); test: co-IP; in vitro co-immunoprecipitation: HA-tagged bait and Myc-tagged prey co-expressed in TNT T7 reticulocyte lysate, anti-HA Affinity Matrix, E buffer (50 mM Tris-HCl pH 7.5, 100 mM NaCl, 1 mM EDTA, 1 mM EGTA, 1% DMSO, 2 mM DTT, 0.1% Nonidet P-40), 4 °C 2 h; anti-Myc immunoblot
[5] = biological target: T1, HA-tagged PIF3 (HA-PIF3) (Arabidopsis) (UniProt O80536); test: as above
T1 sequence: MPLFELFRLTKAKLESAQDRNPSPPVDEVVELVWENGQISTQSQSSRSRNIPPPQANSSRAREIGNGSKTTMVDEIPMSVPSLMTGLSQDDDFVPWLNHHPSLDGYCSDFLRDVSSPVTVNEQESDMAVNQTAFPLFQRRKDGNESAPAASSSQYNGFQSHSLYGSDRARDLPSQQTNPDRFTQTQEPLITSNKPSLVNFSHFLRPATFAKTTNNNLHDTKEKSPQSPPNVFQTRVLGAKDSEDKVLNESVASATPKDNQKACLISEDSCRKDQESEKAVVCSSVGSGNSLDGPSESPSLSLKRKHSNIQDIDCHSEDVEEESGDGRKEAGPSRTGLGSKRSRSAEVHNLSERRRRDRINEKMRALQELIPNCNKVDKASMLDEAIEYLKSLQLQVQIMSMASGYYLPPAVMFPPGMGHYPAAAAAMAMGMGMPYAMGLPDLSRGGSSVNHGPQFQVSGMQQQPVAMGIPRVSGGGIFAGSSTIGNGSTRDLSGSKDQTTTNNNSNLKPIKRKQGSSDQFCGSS

[6] = biological target: PHYB C-terminal module (625-1172 a.a.), N-terminal HA- or Myc-tagged (Arabidopsis) (UniProt P14713); test: as above
[7] = biological target: PHYB HKRD domain (863-1172 a.a.) (Arabidopsis) (UniProt P14713); test: two-hybrid; GAL4 system, bait pGBKT7 in Y2HGold mated with prey pGADT7AD in Y187; growth on SD/-Trp/-Leu with 125 ng/ml Aureobasidin A (high stringency), 30 °C
[8] = biological target: PHYB HKRD domain (863-1172 a.a.) with the D1040V mutation (Arabidopsis) (UniProt P14713); test: as above
[9] = biological target: T2, GST-PIF3 (Arabidopsis, UniProt O80536 1-524); test: pull-down; GST pull-down: immobilized GST-PIF3 pulls down HA-tagged PHYB in the Pr form; anti-HA immunoblot; procedure as ref. 33; only the target purified
T2 construct: the construct is not described here
T2 sequence (looked up): T1 sequence

[10] = biological target: T2, GST-PIF3; test: pull-down; GST pull-down: immobilized GST-PIF3 pulls down HA-tagged PHYB in the Pfr form; anti-HA immunoblot; procedure as ref. 33; only the target purified
[11] = biological target: T2, GST-PIF3; test: pull-down; GST pull-down: immobilized GST-PIF3 pulls down HA-tagged PHYB as apoprotein; anti-HA immunoblot; procedure as ref. 33; only the target purified
[12] = biological target: full-length PHYB, N-terminal HA- or Myc-tagged (Arabidopsis) (UniProt P14713); test: co-IP; in vitro co-immunoprecipitation: HA-tagged bait and Myc-tagged prey co-expressed in TNT T7 reticulocyte lysate, anti-HA Affinity Matrix, E buffer (50 mM Tris-HCl pH 7.5, 100 mM NaCl, 1 mM EDTA, 1 mM EGTA, 1% DMSO, 2 mM DTT, 0.1% Nonidet P-40), 4 °C 2 h; anti-Myc immunoblot
[13] = biological target: HA-tagged C-terminal PHYB (BC-HA), 625-1172 a.a. (Arabidopsis) (UniProt P14713); test: as above

## HKRD-CA2 (994-1172 a.a.) (from UniProt P14713 994-1172) (domain or fragment)
[1]
  binding: binds weakly

## HKRD-CA3 (1041-1172 a.a.) (from UniProt P14713 1041-1172) (domain or fragment)
[2]
  binding: no binding

## HKRD-D (863-1060 a.a.) (from UniProt P14713 863-1060) (domain or fragment)
[3]
  binding: no binding

## PHYB18 C-terminal module (625-1172 a.a., D1040V), N-terminal HA- or Myc-tagged (from UniProt P14713 625-1172) (domain or fragment)
[4]
  binding: no binding

## PHYB C-terminal module (625-1172 a.a.), N-terminal HA- or Myc-tagged (from UniProt P14713 625-1172) (domain or fragment)
[5]
  binding: binds
[6]
  binding: binds

## PHYB HKRD domain (863-1172 a.a.) (from UniProt P14713 863-1172) (domain or fragment)
[7]
  binding: binds
[8]
  binding: no binding

## PHYB HKRD domain (863-1172 a.a.) with the D1040V mutation (from UniProt P14713 863-1172) (domain or fragment)
[7]
  binding: no binding

## PHYB-HA, Pr or Pfr form (from UniProt P14713 1-1172)
[9]
  binding: binds
[10]
  binding: binds

## PHYB-HA, apoprotein (from UniProt P14713 1-1172)
[11]
  binding: binds

## full-length PHYB, N-terminal HA- or Myc-tagged (from UniProt P14713 1-1172)
[12]
  binding: binds

B1: Myc-tagged C-terminal PHYD (DC-Myc), 598-1164 a.a. (domain or fragment, UniProt P42497 598-1164)
chain: SRCQPWETAEMDAIHSLQLILRDSFKESEAMDSKAAAAGAVQPHGDDMVQQGMQEIGAVAREMVRLIETATVPIFAVDIDGCINGWNAKIAELTGLSVEDAMGKSLVRELIYKEYKETVDRLLSCALKGDEGKNVEVKLKTFGSELQGKAMFVVVNACSSKDYLNNIVGVCFVGQDVTGHKIVMDKFINIQGDYKAIIHSPNPLIPPIFAADENTCCLEWNTAMEKLTGWPRSEVIGKLLVREVFGSYCRLKGPDALTKFMIVLHNAIGGQDTDKFPFPFFDRKGEFIQALLTLNKRVSIDGKIIGAFCFLQIPSPELQQALEVQRRQESEYFSRRKELAYIFQVIKNPLSGLRFTNSLLEDMDLNEDQKQLLETSVSCEKQISKIVGDMDVKSIDDGSFLLERTEFFIGNVTNAVVSQVMLVVRERNLQLIRNIPTEVKSMAVYGDQIRLQQVLAEFLLSIVRYAPMEGSVELHLCPTLNQMADGFSAVRLEFRMACAGEGVPPEKVQDMFHSSRWTSPEGLGLSVCRKILKLMNGGVQYIREFERSYFLIVIELPVPLMMMMPSS
[13]
  binding: binds

B2: Myc-tagged C-terminal PHYE (EC-Myc), 549-1112 a.a. (domain or fragment, UniProt P42498 549-1112)
chain: SRSLPWEISEIDAIHSLRLIMRESFTSSRPVLSGNGVARDANELTSFVCEMVRVIETATAPIFGVDSSGCINGWNKKTAEMTGLLASEAMGKSLADEIVQEESRAALESLLCKALQGEEEKSVMLKLRKFGQNNHPDYSSDVCVLVNSCTSRDYTENIIGVCFVGQDITSEKAITDRFIRLQGDYKTIVQSLNPLIPPIFASDENACCSEWNAAMEKLTGWSKHEVIGKMLPGEVFGVFCKVKCQDSLTKFLISLYQGIAGDNVPESSLVEFFNKEGKYIEASLTANKSTNIEGKVIRCFFFLQIINKESGLSCPELKESAQSLNELTYVRQEIKNPLNGIRFAHKLLESSEISASQRQFLETSDACEKQITTIIESTDLKSIEEGKLQLETEEFRLENILDTIISQVMIILRERNSQLRVEVAEEIKTLPLNGDRVKLQLILADLLRNIVNHAPFPNSWVGISISPGQELSRDNGRYIHLQFRMIHPGKGLPSEMLSDMFETRDGWVTPDGLGLKLSRKLLEQMNGRVSYVREDERCFFQVDLQVKTMLGVESRGTEGSSSIK
[13]
  binding: binds

B3: Myc-tagged C-terminal PHYA (AC-Myc), 563-1122 a.a. (domain or fragment, UniProt P14712 563-1122)
chain: TRSLPWKDYEMDAIHSLQLILRNAFKDSETTDVNTKVIYSKLNDLKIDGIQELEAVTSEMVRLIETATVPILAVDSDGLVNGWNTKIAELTGLSVDEAIGKHFLTLVEDSSVEIVKRMLENALEGTEEQNVQFEIKTHLSRADAGPISLVVNACASRDLHENVVGVCFVAHDLTGQKTVMDKFTRIEGDYKAIIQNPNPLIPPIFGTDEFGWCTEWNPAMSKLTGLKREEVIDKMLLGEVFGTQKSCCRLKNQEAFVNLGIVLNNAVTSQDPEKVSFAFFTRGGKYVECLLCVSKKLDREGVVTGVFCFLQLASHELQQALHVQRLAERTAVKRLKALAYIKRQIRNPLSGIMFTRKMIEGTELGPEQRRILQTSALCQKQLSKILDDSDLESIIEGCLDLEMKEFTLNEVLTASTSQVMMKSNGKSVRITNETGEEVMSDTLYGDSIRLQQVLADFMLMAVNFTPSGGQLTVSASLRKDQLGRSVHLANLEIRLTHTGAGIPEFLLNQMFGTEEDVSEEGLSLMVSRKLVKLMNGDVQYLRQAGKSSFIITAELAAANK
[13]
  binding: no binding

B4: Myc-tagged C-terminal PHYC (CC-Myc), 553-1111 a.a. (domain or fragment, UniProt P14714 553-1111)
chain: WKSVPWDDMEMDAINSLQLIIKGSLQEEHSKTVVDVPLVDNRVQKVDELCVIVNEMVRLIDTAAVPIFAVDASGVINGWNSKAAEVTGLAVEQAIGKPVSDLVEDDSVETVKNMLALALEGSEERGAEIRIRAFGPKRKSSPVELVVNTCCSRDMTNNVLGVCFIGQDVTGQKTLTENYSRVKGDYARIMWSPSTLIPPIFITNENGVCSEWNNAMQKLSGIKREEVVNKILLGEVFTTDDYGCCLKDHDTLTKLRIGFNAVISGQKNIEKLLFGFYHRDGSFIEALLSANKRTDIEGKVTGVLCFLQVPSPELQYALQVQQISEHAIACALNKLAYLRHEVKDPEKAISFLQDLLHSSGLSEDQKRLLRTSVLCREQLAKVISDSDIEGIEEGYVELDCSEFGLQESLEAVVKQVMELSIERKVQISCDYPQEVSSMRLYGDNLRLQQILSETLLSSIRFTPALRGLCVSFKVIARIEAIGKRMKRVELEFRIIHPAPGLPEDLVREMFQPLRKGTSREGLGLHITQKLVKLMERGTLRYLRESEMSAFVILTEFPLI
[13]
  binding: no binding
